# According to the supplement of paper PMC8728848:
# Some of the results follow.
# Legend:
# Test in all cases: glycan array binding signal (z-score within array); higher = stronger binding
# Details in all cases: glycan notation: IUPAC condensed, linker removed
# [1] = biological target: GalNAc(b1-3)Gal(a1-4)Gal(b1-4)GlcNAc
# Method in brief: (§1)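 Arrays were curated from the Consortium for Functional Glycomics database, 3228 in total, and kept only where the protein sequence was available. Binding is expressed as a within-array Z-score. This score was averaged across arrays of the same protein sequence at different concentrations or buffers and across linkers, and negative values can be read as non-binding.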
# [2] = biological target: GalNAc(b1-3)Gal(a1-4)Gal(b1-4)GlcNAc(b1-3)Gal(b1-4)Glc
# Method in brief: as §1
# [3] = biological target: GalNAc(b1-3)Gal(a1-6)Gal(b1-4)Glc
# Method in brief: as §1
# [4] = biological target: GalNAc(b1-3)GalNAc
# Method in brief: as §1
# [5] = biological target: GalNAc(b1-4)GlcNAc
# Method in brief: as §1
# [6] = biological target: GalNAc(b1-4)GlcNAc(b1-2)Man(a1-3)[GalNAc(b1-4)GlcNAc(b1-2)Man(a1-6)]Man(b1-4)GlcNAc(b1-4)GlcNAc
# Method in brief: as §1
# [7] = biological target: Glc(a1-4)Glc
# Method in brief: as §1
# [8] = biological target: Glc(a1-6)Glc(a1-6)Glc
# Method in brief: as §1
# [9] = biological target: Glc(b1-4)Glc
# Method in brief: as §1
# [10] = biological target: Glc(b1-6)Glc
# Method in brief: as §1
# [11] = biological target: GlcA(b1-3)Gal
# Method in brief: as §1
# [12] = biological target: GlcA(b1-3)GlcNAc
# Method in brief: as §1
# [13] = biological target: GlcA(b1-6)Gal
# Method in brief: as §1
# [14] = biological target: GlcNAc(a1-3)Gal(b1-4)GlcNAc
# Method in brief: as §1
# [15] = biological target: GlcNAc(a1-4)Gal(b1-3)GlcNAc
# Method in brief: as §1
# [16] = biological target: GlcNAc(a1-4)Gal(b1-4)GalNAc
# Method in brief: as §1
# [17] = biological target: GlcNAc(a1-4)Gal(b1-4)GlcNAc
# Method in brief: as §1
# [18] = biological target: GlcNAc(a1-4)Gal(b1-4)GlcNAc(b1-3)Gal(b1-4)Glc
# Method in brief: as §1
# [19] = biological target: GlcNAc(a1-4)Gal(b1-4)GlcNAc(b1-3)Gal(b1-4)GlcNAc
# Method in brief: as §1
# [20] = biological target: GlcNAc(a1-4)Gal(b1-4)GlcNAc(b1-3)Gal(b1-4)GlcNAc(b1-3)Gal(b1-4)GlcNAc
# Method in brief: as §1
# [21] = biological target: GlcNAc(a1-4)Gal(b1-4)GlcNAc(b1-3)Gal(b1-4)[Fuc(a1-3)]GlcNAc(b1-3)Gal(b1-4)[Fuc(a1-3)]GlcNAc
# Method in brief: as §1
# [22] = biological target: GlcNAc(a1-6)Gal(b1-4)GlcNAc
# Method in brief: as §1
# [23] = biological target: GlcNAc(b1-2)Gal(b1-3)GalNAc
# Method in brief: as §1
# [24] = biological target: GlcNAc(b1-2)Man(a1-3)[GlcNAc(b1-2)Man(a1-6)]Man(b1-4)GlcNAc(b1-4)GlcNAc
# Method in brief: as §1
# [25] = biological target: GlcNAc(b1-2)Man(a1-3)[GlcNAc(b1-2)Man(a1-6)]Man(b1-4)GlcNAc(b1-4)[Fuc(a1-6)]GlcNAc
# Method in brief: as §1
# [26] = biological target: GlcNAc(b1-2)[GlcNAc(b1-4)]Man(a1-3)[GlcNAc(b1-2)Man(a1-6)]Man(b1-4)GlcNAc(b1-4)GlcNAc
# Method in brief: as §1
# [27] = biological target: GlcNAc(b1-3)Gal
# Method in brief: as §1
# [28] = biological target: GlcNAc(b1-3)Gal(b1-3)GalNAc
# Method in brief: as §1
# [29] = biological target: GlcNAc(b1-3)Gal(b1-4)Glc
# Method in brief: as §1
# [30] = biological target: GlcNAc(b1-3)Gal(b1-4)GlcNAc
# Method in brief: as §1
# [31] = biological target: GlcNAc(b1-3)Gal(b1-4)GlcNAc(b1-3)Gal(b1-4)GlcNAc
# Method in brief: as §1
# [32] = biological target: GlcNAc(b1-3)GalNAc
# Method in brief: as §1
# [33] = biological target: GlcNAc(b1-3)Man
# Method in brief: as §1
# [34] = biological target: GlcNAc(b1-3)[GlcNAc(b1-4)][GlcNAc(b1-6)]GlcNAc
# Method in brief: as §1
# [35] = biological target: GlcNAc(b1-3)[GlcNAc(b1-6)]Gal(b1-4)GlcNAc
# Method in brief: as §1
# [36] = biological target: GlcNAc(b1-3)[GlcNAc(b1-6)]GalNAc
# Method in brief: as §1
# [37] = biological target: GlcNAc(b1-4)Gal(b1-4)GlcNAc
# Method in brief: as §1
binder,measurement,setting,value
"Pp2-A2 (Arabidopsis thaliana), Q07098 (protein) MPSNGDLDRQIEQLMECKPLSEADVRTLCDQARAILVEEYNVQPVKCPVTVCGDIHGQFYDLIELFRIGGNAPDTNYLFMGDYVDRGYYSVETVSLLVALKVRYRDRLTILRGNHESRQITQVYGFYDECLRKYGNANVWKYFTDLFDYLPLTALIESQVFCLHGGLSPSLDTLDNIRSLDRIQEVPHEGPMCDLLWSDPDDRCGWGISPRGAGYTFGQDIAAQFNHNNGLSLISRAHQLVMEGFNWCQDKNVVTVFSAPNYCYRCGNMAAILEIGENMEQNFLQFDPAPRQVEPDTTRKTPDYFL",glycan array binding signal (z-score),[1],-0.619
same,glycan array binding signal (z-score),[2],-0.71
same,glycan array binding signal (z-score),[3],-0.622
same,glycan array binding signal (z-score),[4],-0.683
same,glycan array binding signal (z-score),[5],-0.398
same,glycan array binding signal (z-score),[6],-0.478
same,glycan array binding signal (z-score),[7],-0.06
same,glycan array binding signal (z-score),[8],0.161
same,glycan array binding signal (z-score),[9],-0.143
same,glycan array binding signal (z-score),[10],0.607
same,glycan array binding signal (z-score),[11],0.275
same,glycan array binding signal (z-score),[12],0.421
same,glycan array binding signal (z-score),[13],0.706
same,glycan array binding signal (z-score),[14],-0.817
same,glycan array binding signal (z-score),[15],-0.392
same,glycan array binding signal (z-score),[16],-0.107
same,glycan array binding signal (z-score),[17],-0.247
same,glycan array binding signal (z-score),[18],-0.314
same,glycan array binding signal (z-score),[19],0.102
same,glycan array binding signal (z-score),[20],-0.327
same,glycan array binding signal (z-score),[21],5.17
same,glycan array binding signal (z-score),[22],-0.835
same,glycan array binding signal (z-score),[23],-0.723
same,glycan array binding signal (z-score),[24],-0.506
same,glycan array binding signal (z-score),[25],3.08
same,glycan array binding signal (z-score),[26],-0.49
same,glycan array binding signal (z-score),[27],-0.346
same,glycan array binding signal (z-score),[28],-0.525
same,glycan array binding signal (z-score),[29],-0.721
same,glycan array binding signal (z-score),[30],-0.479
same,glycan array binding signal (z-score),[31],-0.721
same,glycan array binding signal (z-score),[32],-0.702
same,glycan array binding signal (z-score),[33],-0.611
same,glycan array binding signal (z-score),[34],-0.544
same,glycan array binding signal (z-score),[35],-0.375
same,glycan array binding signal (z-score),[36],-0.746
same,glycan array binding signal (z-score),[37],-0.624
